Screen size: about 310,000 compounds; about 2,200 (0.71%) showed an effect of 50% or more. Effects have a minus sign here. The list shows a part of the results.
molecular target: human ether-à-go-go-related gene (hERG) potassium channel (human, UniProt Q12809); test: primary screen, population patch clamp on CHO cells stably expressing hERG
Sequence (Q12809 whole entry, looked up): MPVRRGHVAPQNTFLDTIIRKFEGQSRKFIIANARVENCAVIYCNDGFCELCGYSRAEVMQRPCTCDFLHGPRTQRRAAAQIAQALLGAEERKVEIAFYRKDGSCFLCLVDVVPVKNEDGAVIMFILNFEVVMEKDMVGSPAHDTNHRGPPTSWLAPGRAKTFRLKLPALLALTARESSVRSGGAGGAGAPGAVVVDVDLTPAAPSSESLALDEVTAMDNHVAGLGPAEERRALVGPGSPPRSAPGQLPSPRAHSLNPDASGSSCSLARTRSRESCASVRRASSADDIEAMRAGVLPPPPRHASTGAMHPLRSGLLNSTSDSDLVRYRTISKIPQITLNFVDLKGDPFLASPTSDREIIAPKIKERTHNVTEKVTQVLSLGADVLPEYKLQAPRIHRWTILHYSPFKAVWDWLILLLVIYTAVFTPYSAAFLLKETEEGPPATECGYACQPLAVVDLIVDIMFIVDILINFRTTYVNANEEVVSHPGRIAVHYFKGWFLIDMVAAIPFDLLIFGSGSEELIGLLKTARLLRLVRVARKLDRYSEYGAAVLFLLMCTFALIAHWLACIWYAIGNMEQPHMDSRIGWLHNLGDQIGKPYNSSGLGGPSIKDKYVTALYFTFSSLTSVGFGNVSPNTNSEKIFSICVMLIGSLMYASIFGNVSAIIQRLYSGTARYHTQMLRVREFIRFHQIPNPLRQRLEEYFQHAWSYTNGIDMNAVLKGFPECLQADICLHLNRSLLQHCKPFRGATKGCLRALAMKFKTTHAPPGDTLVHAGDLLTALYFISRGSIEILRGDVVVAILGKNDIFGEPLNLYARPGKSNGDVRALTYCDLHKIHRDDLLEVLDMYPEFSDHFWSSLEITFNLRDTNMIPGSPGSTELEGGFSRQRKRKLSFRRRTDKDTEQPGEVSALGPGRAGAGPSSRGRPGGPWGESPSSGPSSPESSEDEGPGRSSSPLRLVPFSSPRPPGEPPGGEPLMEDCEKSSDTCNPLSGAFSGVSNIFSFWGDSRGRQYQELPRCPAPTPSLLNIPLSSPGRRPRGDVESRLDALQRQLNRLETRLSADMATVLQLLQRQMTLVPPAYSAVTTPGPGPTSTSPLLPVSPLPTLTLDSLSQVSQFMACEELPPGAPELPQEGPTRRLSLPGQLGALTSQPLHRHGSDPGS

SMILES	hERG current change (%, negative = inhibition) at 1uM
COc1ccccc1C(C)NC(=O)c1cc(S(=O)(=O)N2CCCCC2)ccc1C (stereo not drawn)	11%
CCSc1nnc(SCC(=O)NNC(=O)c2ccccc2F)s1	16.3%
Cc1onc(-c2ccccc2Cl)c1C(=O)NCC1CCCO1 (stereo not drawn)	2.91%
Cc1cc(C)n(CC2CC(=O)N(c3ccc(C)c(Cl)c3)C2=O)n1 (stereo not drawn)	4.16%
COc1ccc(N2C(=O)CSC2c2cccs2)cc1 (stereo not drawn)	8.29%
NS(=O)(=O)c1ccc(CCNC(=O)C2CCN(S(=O)(=O)c3ccccc3)CC2)cc1	6.13%
O=C(COC(=O)c1c(F)cccc1Cl)NC(=O)Nc1ccc2c(c1)OCCO2	12.1%
Cc1cc2c(cc1S(=O)(=O)N1CCN(c3ccccc3)CC1)OCCN2C	3.14%
CCN(CC)S(=O)(=O)c1ccc(NN=C2CCN(C(C)C)CC2)c([N+](=O)[O-])c1	-10.8%
CC1CCCC(C)N1C(=O)CSc1nccc(=O)[nH]1 (stereo not drawn)	1.24%
O=c1[nH]cc(F)c(=O)[nH]1	9.67%
C1CCCN(c2nc3nonc3nc2N2CCCCCC2)CC1	11.4%
Cc1ccc(S(=O)(=O)Nc2cnn(-c3ccccc3)c(=O)c2Cl)cc1	10.4%
CCN1C(=O)NC(=O)/C(=C\c2cn(CC(=O)N3CCCC3)c3ccccc23)C1=O	14%
CCOc1ccccc1NS(=O)(=O)c1ccc2c(c1)n(C)c(=O)c(=O)n2C	-4.69%
C=CCn1c(C)cc(C(=O)Cn2c(C(C)O)nc3ccccc32)c1C (stereo not drawn)	8.41%
CC(C)COP(=O)(CNC(=O)CN1C(=O)c2ccccc2S1(=O)=O)OCC(C)C	22.8%
Cc1cccn2cc(CNS(=O)(=O)c3ccc4ccccc4c3)nc12	0.869%
Cc1ccc(C2(O)CN(c3ccccc3)C3=[N+]2CCS3)cc1.[Br-] (stereo not drawn)	1.35%

SMILES	hERG current change (%, negative = inhibition) at 1uM
CC(=O)c1cccc(NC(=O)N2CCCC2C(=O)NCCc2ccccc2)c1 (stereo not drawn)	0.0778%
Cc1ccc(/C=C2\SC(=S)N(CCCC(=O)NC3CCCC3)C2=O)cc1	-4.88%
CCCP(=O)(CC(=O)N(CC)CC)c1ccccc1 (stereo not drawn)	0.791%
Cc1ccc(Nc2nc(N/N=C\c3ccc4c(c3)OCO4)nc(N3CCOCC3)n2)cc1	1.66%
COc1ccc(S(=O)(=O)N2CCN(C(=O)c3ccc(C)o3)CC2)cc1	6.74%
CCN(Cc1ccccc1)c1ccc(/C=N/N=C(N)N)cc1	-2.06%
Cc1cc(OCC(O)CNC(C)(C)C)ccc1Cl.Cl (stereo not drawn)	4.8%
O=C1NC(=O)N(Cc2ccco2)C(=O)/C1=C\c1cccn1CCOc1ccccc1	14.3%
CC(C)NS(=O)(=O)c1ccc(Oc2ncc(C(F)(F)F)cc2Cl)cc1	13.9%
Cc1cc(Nc2ccc3c(c2)OCCO3)c2cc(Cl)ccc2n1.Cl	6.09%
CC(C)(C)Nc1nc(SCC(=O)Nc2ccccc2Cl)nc(N2CCOCC2)n1	7.43%
N#CC1=C(N)NC(SCC(=O)Nc2ccc(Br)cc2)=C(C#N)C12CCCCC2	17.5%
CC(C)/C=N/NC(=O)c1ccc(Cl)cc1	6.18%
CC(C)CC(=O)N1CCN(Cc2ccc(C(F)(F)F)cc2)CC1	14.8%
CCCNC(=O)c1ccccc1NC(=O)Nc1ccccc1C	16%
CCOc1cccc(/C=N/NC(=O)c2cc(C3CC3)[nH]n2)c1O	14.2%
O=C(NNC1CC(=O)N(c2ccc(Br)cc2)C1=O)c1cccnc1 (stereo not drawn)	4.86%
Cc1nn(-c2ccccc2)c(C)c1NC(=O)COC(=O)/C=C/c1ccccc1	4.15%
Cc1ccc(SCC(=O)Nc2ccc(-c3nc4ccccc4[nH]3)cc2)cc1	18%

SMILES	hERG current change (%, negative = inhibition) at 1uM
CC1CCCN(CC(O)COC(c2ccccc2)c2ccccc2)C1 (stereo not drawn)	-15%
COc1ccccc1N1CCN(CCN2C(=O)C3CCCCN3C2=O)CC1 (stereo not drawn)	12.7%
Cc1nnsc1SC(C)C(=O)O (stereo not drawn)	9.05%
CCc1ccc(-c2cn3nc(-c4ccccc4)cnc3n2)cc1	4.28%
CCOC(=O)C(=O)Nc1ccccc1C(=O)Nc1ccc(OC)cc1	11%
C/C(=N/NS(=O)(=O)c1ccc(C)cc1)c1ccc(NC(=O)C(F)(F)F)cc1	1.22%
CCOC(=O)C(=O)N1CCC(C(=O)OCC)CC1	6.02%
Cc1ccc(-c2cn3cccnc3n2)cc1NC(=O)c1ccc(Br)o1	11.9%
Cc1ccc(F)cc1NC(=O)CCNC(=O)c1ccc([N+](=O)[O-])cc1	3.53%
O=C(CSc1nnc(SCc2ccccc2)s1)N/N=C/C=C/c1ccco1	-1.13%
Nc1ccn(CC(=O)NCc2ccc3c(c2)OCO3)c(=O)n1	14.1%
O=C(Nc1cnccn1)Nc1cccc(Cl)c1Cl	17.4%
COc1ccc(C)cc1-n1nnnc1SCC(=O)N1CCC(C(=O)Nc2nccs2)CC1	8.77%
CSc1cccc(NC(=S)NC(=O)CCc2ccccc2)c1	15.8%
CCC(=O)N1CCc2cc(S(=O)(=O)NCCC(=O)N3CCN(c4ccccn4)CC3)ccc21	-2.58%
CC(=O)N1CCN(CC(O)Cn2c3ccccc3c3ccccc32)CC1 (stereo not drawn)	11.6%
O=C(O)c1ccc(S(=O)(=O)N2CCCCCC2)cc1	5.84%
CCc1nnc(NS(=O)(=O)c2ccc(N3C(=O)c4ccccc4C3=O)cc2)s1	11.4%
O=C(c1ccccc1)[C@@H]1[C@@H](C(=O)c2ccc(F)cc2)[C@@]2(C(=O)Nc3ccccc32)[C@H]2c3ccccc3C=CN12	11.4%
